Experimental findings from PubChem BioAssay AID588579 (National Center for Advancing Translational Sciences (NCATS), 2011) are described below.

Among all 400,000 compounds or so, about 2,200 (0.55%) were called active. Inconclusive results (about 1%) are left out. Calls come from the whole dose curve; as a rule, active = well fitted inhibition curve with a large enough effect; inconclusive = small, poorly fitted or top-dose-only effect, or another doubt; inactive = no such curve, though single readings can be large or run the other way. Only a part is listed here, and it is no random draw.
% is set by controls: 0 for no effect and ±100 for the full control effect; potency is the fitted concentration of half-maximal effect.

Sequence of UniProt Q9UBT6 (Q9UBT6 whole entry, looked up): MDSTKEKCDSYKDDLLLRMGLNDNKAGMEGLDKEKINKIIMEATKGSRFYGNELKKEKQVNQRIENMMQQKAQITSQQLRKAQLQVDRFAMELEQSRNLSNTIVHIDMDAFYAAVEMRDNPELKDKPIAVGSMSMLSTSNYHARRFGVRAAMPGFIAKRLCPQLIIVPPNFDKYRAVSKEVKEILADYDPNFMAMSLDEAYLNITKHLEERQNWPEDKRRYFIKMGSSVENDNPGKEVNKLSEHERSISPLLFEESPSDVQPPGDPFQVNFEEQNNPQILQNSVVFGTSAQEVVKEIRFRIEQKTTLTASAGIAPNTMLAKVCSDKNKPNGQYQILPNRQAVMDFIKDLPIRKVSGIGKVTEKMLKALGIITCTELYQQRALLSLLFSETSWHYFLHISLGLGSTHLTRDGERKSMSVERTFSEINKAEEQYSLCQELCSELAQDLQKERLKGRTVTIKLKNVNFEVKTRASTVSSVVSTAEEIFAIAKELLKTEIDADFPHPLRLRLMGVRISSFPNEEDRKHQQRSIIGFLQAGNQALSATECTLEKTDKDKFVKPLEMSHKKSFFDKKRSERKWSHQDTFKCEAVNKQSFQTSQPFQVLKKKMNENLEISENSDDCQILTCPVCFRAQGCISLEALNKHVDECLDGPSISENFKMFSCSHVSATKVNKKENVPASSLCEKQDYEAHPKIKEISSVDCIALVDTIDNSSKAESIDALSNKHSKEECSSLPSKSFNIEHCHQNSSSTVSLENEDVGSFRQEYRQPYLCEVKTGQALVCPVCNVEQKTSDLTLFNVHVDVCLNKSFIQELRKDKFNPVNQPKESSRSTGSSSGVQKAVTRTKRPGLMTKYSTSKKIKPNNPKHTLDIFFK

This test deals with DNA polymerase kappa (Homo sapiens) (UniProt Q9UBT6). Kind of test: qHTS for Inhibitors of Polymerase Kappa. Conditions: purified Pol kappa, fluorescent DNA synthesis assay, 10 min; series mostly up to 107 µM; activity, negative = inhibition: at the top concentration. Here is the method:
The processing and repair of DNA interstrand crosslinks (ICL) in eukaryotic cells are extremely complex, potentially involving multiple DNA repair and damage tolerance pathways, including homologous recombination, nucleotide excision repair, translesion synthesis (TLS), and cell cycle checkpoints.
To that end, in a collaboration between the Oregon Health & Science University and the NIH Chemical Genomics Center a 1536-well high-throughput screen was developed. This fluorescent screen was assayed against the NIH Molecular Libraries Small Molecule Repository (MLSMR) to discover inhibitors of Pol Kappa.
NIH Chemical Genomics Center [NCGC]
NIH Molecular Libraries Probe Centers Network [MLPCN]
Assay Submitter (PI): Stephen Lloyd, Oregon Health & Science University
Three microliters of reagents (buffer in column 3 and 4 as negative control and 10 nM Pol kappa in columns 1, 2, and 5-48) were dispensed into a 1536-well black solid-bottom plate. Compounds (23 nL) were transferred via Kalypsys pin tool equipped with 1536-pin array. The plates were then incubated for 15 min at room temperature, and 1 uL substrate (50 nM final concentration) were then added to start the reaction and kinetically read twice at 0 min and 10 min on the Viewlux reader
In general terms: In qHTS, concentration-response curves come from the screen itself.
For `Cc1oc(-c2ccc(F)cc2)cc1-c1nn2c(-c3ccoc3C)nnc2s1`, the Potency was active: 28.2 µM.

On to `CC(=O)C1(O)CCC2C3CC(C)C4=CC(=O)C=CC4(C)C3(F)C(O)CC21C` (stereo unspecified), for which the “activity, negative = inhibition” value is inactive: -12.6%.

Regarding `CCn1c(SCC(=O)c2ccc(O)c(O)c2)nnc1-c1ccc(C)cc1`, the Potency is active: 28.2 µM.

`CN(C)C(=O)Nc1ccccc1`: the Potency entry was “inactive”.

With `O=C(/C=C/c1ccco1)Oc1cccc2cccnc12`, the “activity, negative = inhibition” value is inactive: -9.76%.

Regarding `Clc1ccc(C[n+]2cc(-c3ccccc3)n3c2CCCCC3)c(Cl)c1`, the Potency entry was “inactive”.

`NC12CC3CC(CC(C3)C1)C2`: the Potency result is “inactive”.

On to `CCN(c1ccc(OC)cc1)S(=O)(=O)c1nnc(NC(=O)COc2ccc(F)cc2)s1`, for which the “activity, negative = inhibition” value was inactive: 1.16%.

`CC(C)(C)OC(=O)N1CCC[C@@H]1CO`: the Potency result was “inactive”.

For `O=c1cc(-c2ccc(O)cc2)oc2c(C3OCC(O)C(O)C3O)c(O)c(C3OC(CO)C(O)C(O)C3O)c(O)c12` (stereo unspecified), the Potency was active: 50.1 µM.

For `Cc1cccc(CN2C[C@]34CC[C@@H](C[C@@H]3S2(=O)=O)O4)c1`, the “activity, negative = inhibition” value is inactive: -5.04%.

`COc1ccc(/C=C/C(=O)CC(=O)/C=C/c2cccc(O)c2OC)cc1O`: the activity, negative = inhibition is inactive: -8.75% [at 19.4 µM].

With `NCCCCNCCCN`, the Potency result is “inactive”.

As for `Cc1ccc(CCNC(=O)c2c3c(nc4ccccc24)C(=O)N(C2CCCCC2)C3)cc1`, the “activity, negative = inhibition” value was inactive: 22.8%.

Regarding `N[C@H](CO)C(=O)O`, the Potency entry is “inactive”.

As for `COc1ccc(-c2nc(SCC(=O)Nc3ccc4c(c3)OCCO4)c(-c3ccc(F)cc3)[nH]2)cc1OC`, the “activity, negative = inhibition” value is inactive: 45.1%.

`O=c1cc(N2CCOCC2)oc2c1ccc1ccccc12`: the “activity, negative = inhibition” value was inactive: 18.2% [at 60.1 µM].

Regarding `CCOC(=O)C(CCc1ccccc1)NC(C)C(=O)N1Cc2cc(OC)c(OC)cc2CC1C(=O)O` (stereo unspecified), the “activity, negative = inhibition” value is inactive: 16.1% [at 60.1 µM].

For `CN(Cc1ccco1)S(=O)(=O)c1nnc(NC(=O)c2ccccc2)s1`, the “activity, negative = inhibition” value was inactive: 5.28%.

With `C[C@@H]1[C@H](O)[C@@H](C)/C=C/C=C/C=C/C=C/C=C/C=C/C=C/[C@H](O[C@@H]2O[C@H](C)[C@@H](O)[C@H](N)[C@@H]2O)C[C@@H]2O[C@](O)(C[C@@H](O)C[C@@H](O)[C@H](O)CC[C@@H](O)C[C@@H](O)CC(=O)O[C@H]1C)C[C@H](O)[C@H]2C(=O)O`, the “activity, negative = inhibition” value was inactive: -15.4% [at 60.1 µM].

Consider `CC(O)CC(=O)O` (stereo unspecified), for which the “activity, negative = inhibition” value was inactive: -2.89%.

For the compound `COc1ccc(N2CCN(C(=O)Cc3ccc(S(=O)(=O)N4CCOCC4)s3)CC2)cc1`, the Potency is active: 79.4 µM.

As to `C[C@]12CC[C@@H]3c4ccc(O)cc4CC[C@H]3[C@@H]1CC[C@@H]2OC(=O)CCC1CCCC1`, the “activity, negative = inhibition” value is inactive: 0.386%.

Take `CN1CCN(C2=Cc3ccccc3Oc3ccc(Cl)cc32)CC1`: the activity, negative = inhibition was inactive: 1.43% [at 19.4 µM].

Regarding `N=C(C[C@@H](O)COc1ccccc1-c1ccccc1)N1CCCCC1`, the activity, negative = inhibition was inactive: -7.46% [at 19.4 µM].

Take `Oc1ccc(C[C@@H]2CNCCN2CCc2cc(C(F)(F)F)cc(C(F)(F)F)c2)cc1`: the “activity, negative = inhibition” value was inactive: -12.6%.

On to `COC(=O)[C@H]1C2CC3c4[nH]c5ccccc5c4CCN3CC2CC[C@@H]1O` (stereo partly specified), for which the activity, negative = inhibition was inactive: -0.321% [at 19.4 µM].

Take `CCC(Cc1c(I)cc(I)c(N)c1I)C(=O)O` (stereo unspecified): the Potency entry was “inactive”.

Regarding `OCC1=C[C@@H](O)[C@@H]2C=CO[C@@H](O[C@@H]3O[C@H](CO)[C@@H](O)[C@H](O)[C@H]3O)[C@H]12`, the “activity, negative = inhibition” value is inactive: -16.9%.

For the compound `O=c1ccc2ccccc2[nH]1`, the “activity, negative = inhibition” value is inactive: 13% [at 60.1 µM].

As to “H-HSDAIFTQQYSKLLAKLALQKYLASILGSRTSPPP-NH2”, the “activity, negative = inhibition” value is inactive: 11.6% [at 60.1 µM].

As to `CCOC(=O)C1=C(O)/C(=C\c2ccc(CNS(=O)(=O)c3ccc(Br)cc3)o2)N=C1C`, the Potency was active: 50.1 µM.

Consider `Cc1cc(C)cc(NC(=O)C2CCCN2S(=O)(=O)c2ccc3c(c2)C(C)(C)C(=O)N3C)c1` (stereo unspecified), for which the “activity, negative = inhibition” value was inactive: -5.66%.

`CC(=O)Nc1ccc(S(=O)(=O)O)c2cc(S(=O)(=O)O)c(N=Nc3ccc(N=Nc4ccc(S(=O)(=O)O)cc4)c4ccc(S(=O)(=O)O)cc34)c(O)c12`: the Potency was active: 1.41 µM.

On to `CC(=O)NO`, for which the “activity, negative = inhibition” value is inactive: 2.36%.

In the case of `O=C1ON=C(c2ccccc2)/C1=C/c1ccco1`, the Potency is active: 28.2 µM.

Consider `CC(=O)N[C@@H](CC(=O)O)C(=O)O`, for which the activity, negative = inhibition is inactive: -5.11% [at 12 µM].

`CCCCCCCCCCC[C@@H](C[C@@H]1OC(=O)[C@H]1CCCCCC)OC(=O)[C@H](CC(C)C)NC=O`: the “activity, negative = inhibition” value was inactive: -0.356%.

In the case of `Cc1cc(C(=O)O)ccc1-c1ccc(/C=C2\NC(=O)N(Cc3ccc(F)cc3)C2=O)o1`, the Potency is active: 28.2 µM.

For the compound `C=C1C(=O)O[C@@H]2[C@H]3O[C@]3(C)CC/C=C(\C)CC[C@@H]12`, the Potency result was “inactive”.

Regarding `C[C@H]1CCC(=O)N([C@H](CC#N)Cc2ccccc2)CC1`, the “activity, negative = inhibition” value was inactive: 4.82%.

On to `Cc1cccc(C)c1NC(=O)C1CCCCN1C` (stereo unspecified), for which the “activity, negative = inhibition” value is inactive: -2.69% [at 60.1 µM].

For the compound `NC(N)=NCCNS(=O)(=O)c1cccc2cnccc12`, the Potency result is “inactive”.

On to `Cc1nnc(NS(=O)(=O)c2ccc(N=Nc3ccc(N)nc3N)cc2)s1`, for which the Potency was active: 79.4 µM.

As to `CCN(CC)CCCNc1ccc2ncn3c4ccc(O)cc4c(=O)c1c23`, the Potency was active: 79.4 µM.

For `O=C(NCc1ccccc1)C1(C(F)(F)F)C/C(=C\CCO)CCCO1` (stereo unspecified), the “activity, negative = inhibition” value is inactive: 19.5%.

Regarding `C=CCn1c(SCC(=O)c2ccc(O)c(O)c2)nnc1-c1cccc(Cl)c1`, the Potency was active: 39.8 µM.

For `COc1ccc(COc2cc(-c3cccc(OC)c3)nc3ccc(NC(=O)c4ccccc4)cc23)cc1`, the “activity, negative = inhibition” value was inactive: -0.765%.

In the case of `NC(=O)Cn1c(=O)n(Cc2ccco2)c(=O)c2c3c(sc21)CCCCC3`, the Potency is active: 25.1 µM.

On to `O=C(CC1Nc2cccc3cccc(c23)NC1=O)Nc1ccc(F)cc1` (stereo unspecified), for which the “activity, negative = inhibition” value is inactive: -4.37%.

As to `CC[C@H](C)[C@H](NC(=O)[C@H](CC(N)=O)NC(=O)[C@H](CCCCN)NC(=O)[C@H](Cc1ccccc1)NC(=O)[C@H](Cc1ccccc1)NC(=O)[C@H](Cc1cnc[nH]1)NC(=O)[C@@H](N)C(C)C)C(=O)N[C@H](C(=O)N[C@H](C(=O)N1CCC[C@H]1C(=O)N[C@@H](CCCN=C(N)N)C(=O)N[C@H](C(=O)N1CCC[C@H]1C(=O)O)[C@@H](C)O)[C@@H](C)O)C(C)C`, the “activity, negative = inhibition” value is inactive: 12% [at 60.1 µM].

On to `CCc1ccccc1NC(=O)CC(C)n1nc(C)cc1C` (stereo unspecified), for which the “activity, negative = inhibition” value is inactive: 36%.

For `O=[N+]([O-])c1ccc(Cn2cc(-c3cccc(C(F)(F)F)c3)nn2)cc1`, the “activity, negative = inhibition” value is inactive: -6.67%.

For `CC(C)n1c(SCC(=O)Nc2nncs2)nnc1-c1ccco1`, the Potency is active: 79.4 µM.

As to `O=C1NCN(c2ccccc2)C12CCN(CCCC(c1ccc(F)cc1)c1ccc(F)cc1)CC2`, the Potency entry is “inactive”.

Take `COC(=O)C[C@H]1c2cc(F)ccc2S(=O)(=O)N1Cc1ccccc1OC`: the “activity, negative = inhibition” value is inactive: -16.3%.
